This is one part of the list. These are noisy estimates, calculated here from bound and input reads.
Target: T1, Pho4 (S. cerevisiae) (UniProt P07270)
T1 sequence: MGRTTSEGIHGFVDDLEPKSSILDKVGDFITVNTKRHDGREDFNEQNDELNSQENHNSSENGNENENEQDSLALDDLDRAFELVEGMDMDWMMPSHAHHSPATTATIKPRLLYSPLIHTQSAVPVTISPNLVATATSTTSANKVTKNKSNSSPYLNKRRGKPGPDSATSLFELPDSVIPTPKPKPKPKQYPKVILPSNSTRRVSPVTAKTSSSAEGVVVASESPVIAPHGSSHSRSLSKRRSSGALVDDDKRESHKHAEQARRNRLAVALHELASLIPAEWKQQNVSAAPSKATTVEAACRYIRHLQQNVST
Assay: relative binding free energy (BET-seq); higher = weaker binding
Details: reference: library average

Row | Sequence | relative binding free energy
1 | AATGGCACGTGTGAGG | -0.04 kcal/mol
2 | GAAAGCACGTGTGGTA | -0.02 kcal/mol
3 | CTGATCACGTGGGGGC | -0.05 kcal/mol
4 | AGATTCACGTGGCGTT | 0.23 kcal/mol
5 | GTGAACACGTGGGCGA | -0.04 kcal/mol
6 | TTGCCCACGTGTTGGG | -0.15 kcal/mol
7 | GGCTACACGTGAGTTG | 0.28 kcal/mol
8 | GTAGGCACGTGGACGA | -0.04 kcal/mol
9 | TCGGCCACGTGGTTAG | -0.08 kcal/mol
10 | ATTGTCACGTGGAAGA | 0.08 kcal/mol
11 | CTGGGCACGTGTATTG | -0.09 kcal/mol
12 | AAAGGCACGTGGCTTT | -0.05 kcal/mol
13 | GGCATCACGTGAGGGT | 0.43 kcal/mol
14 | GTACACACGTGTTTGT | -0.13 kcal/mol
15 | TAAGGCACGTGATGCT | -0.01 kcal/mol
16 | ATTGACACGTGTTGTG | -0.04 kcal/mol
17 | TATAGCACGTGTGTAG | -0.04 kcal/mol
18 | GGACTCACGTGAAGGG | 0.24 kcal/mol
19 | TGCGTCACGTGGGATT | 0.01 kcal/mol
20 | TTTTTCACGTGATGCA | 0.28 kcal/mol
21 | GCTGTCACGTGTGGGG | 0.18 kcal/mol
22 | TGGGACACGTGGGATG | -0.01 kcal/mol
23 | GGAGACACGTGTTGTA | -0.08 kcal/mol

Row | Sequence | relative binding free energy
24 | AAATGCACGTGGGAGG | -0.23 kcal/mol
25 | TGTATCACGTGAGTTG | 0.39 kcal/mol
26 | TATATCACGTGTCTGG | 0.12 kcal/mol
27 | TGTCGCACGTGGGGGC | -0.16 kcal/mol
28 | GTCCTCACGTGTTGGT | 0.23 kcal/mol
29 | ATTCACACGTGCTGTT | 0.15 kcal/mol
30 | ATAAGCACGTGATGTA | 0.02 kcal/mol
31 | AGTGGCACGTGGGTCG | -0.13 kcal/mol
32 | TGTTGCACGTGGGTGC | -0.08 kcal/mol
33 | TATTGCACGTGCTCTT | 0.04 kcal/mol
34 | TTTGACACGTGTTTTC | 0.08 kcal/mol
35 | GGTGCCACGTGCAGTG | -0.08 kcal/mol
36 | GGTTTCACGTGGTGAG | 0.31 kcal/mol
37 | ATGGACACGTGGCGCG | -0.01 kcal/mol
38 | TTCATCACGTGGAATA | 0.3 kcal/mol
39 | TAGTGCACGTGGTAGA | -0.06 kcal/mol
40 | AGGATCACGTGTGAGA | 0.27 kcal/mol
41 | GATATCACGTGAGTGG | 0.25 kcal/mol
42 | AGGGACACGTGGGGGC | -0.13 kcal/mol
43 | GTAGTCACGTGGTGGA | 0.09 kcal/mol
44 | GCATGCACGTGTTGGA | -0.03 kcal/mol
45 | ATGTGCACGTGGTACG | -0.12 kcal/mol
46 | AATGTCACGTGTTTGG | 0.1 kcal/mol

Row | Sequence | relative binding free energy
47 | GGTTCCACGTGGTTCG | 0.2 kcal/mol
48 | TAATGCACGTGTGTCT | -0.14 kcal/mol
49 | GTTTGCACGTGGTTGG | 0.14 kcal/mol
50 | CGAGACACGTGTGGGA | 0.2 kcal/mol
51 | AGAATCACGTGTAGTA | 0.1 kcal/mol
52 | GATGACACGTGGAGTG | 0.11 kcal/mol
53 | CAGTACACGTGAAGGT | 0.28 kcal/mol
54 | GTTTCCACGTGTGAGT | 0.18 kcal/mol
55 | TTTAACACGTGTCGCG | 0.01 kcal/mol
56 | AGGGGCACGTGGCTAT | -0.32 kcal/mol
57 | ATGGACACGTGGAAAG | 0.14 kcal/mol
58 | GGTGTCACGTGGCGCT | 0.02 kcal/mol
59 | GTGGTCACGTGCGCGA | -0.04 kcal/mol
60 | TGACGCACGTGGGCTA | -0.08 kcal/mol
61 | TCGTGCACGTGGGCGT | -0.1 kcal/mol
62 | TTCTGCACGTGGTTAG | -0.01 kcal/mol
63 | CATATCACGTGGGGCG | 0.09 kcal/mol
64 | AGGGTCACGTGTAAAA | 0.17 kcal/mol
65 | ATATGCACGTGGTGTT | -0.19 kcal/mol
66 | GTGTGCACGTGGGCCT | -0.2 kcal/mol
67 | GTTATCACGTGATAGG | 0.28 kcal/mol
68 | ATGTCCACGTGCTGGT | 0.03 kcal/mol
69 | ATAGGCACGTGTATAC | -0.03 kcal/mol

Row | Sequence | relative binding free energy
70 | TTTGGCACGTGGGTGG | -0.16 kcal/mol
71 | TGTGGCACGTGAGAAA | 0.2 kcal/mol
72 | TAGTCCACGTGAAGGG | 0.41 kcal/mol
73 | TGGATCACGTGCTAGT | 0.21 kcal/mol
74 | AACGGCACGTGTTTGT | -0.15 kcal/mol
75 | GTCGGCACGTGGTCAG | -0.03 kcal/mol
76 | GGGGACACGTGGAAGT | 0.14 kcal/mol
77 | GTCTGCACGTGGGGGA | -0.23 kcal/mol
78 | CATCGCACGTGGGGTG | -0.27 kcal/mol
79 | AGTTACACGTGCAGTG | 0.06 kcal/mol
80 | TTCGGCACGTGGGTAA | -0.18 kcal/mol
81 | GCTTTCACGTGGCGTG | 0.27 kcal/mol
82 | GGCTGCACGTGGAGTG | -0.03 kcal/mol
83 | ACAGTCACGTGGGGGT | -0.15 kcal/mol
84 | CGCAGCACGTGGGGAT | -0.2 kcal/mol
85 | CGTGACACGTGTAGGA | 0.05 kcal/mol
86 | TGCCGCACGTGGGTAT | -0.25 kcal/mol
87 | TTCGGCACGTGGGACA | -0.1 kcal/mol
88 | GCTGACACGTGAGAGG | 0.39 kcal/mol
89 | AAAATCACGTGTGATT | 0.35 kcal/mol
90 | GTGATCACGTGCGGCG | -0.02 kcal/mol
91 | TTGTACACGTGGGTTG | -0.14 kcal/mol
92 | GGTGTCACGTGGGCAT | 0.08 kcal/mol

Row | Sequence | relative binding free energy
93 | ATGATCACGTGGAGTT | 0.16 kcal/mol
94 | TAAATCACGTGTTATG | 0.01 kcal/mol
95 | GGTTACACGTGTGCCG | 0.32 kcal/mol
96 | TTAAGCACGTGGCGGA | -0.03 kcal/mol
97 | GGTGGCACGTGCAGAG | -0.07 kcal/mol
98 | TATGGCACGTGCTGTG | -0.31 kcal/mol
99 | ATGGACACGTGAGCGT | 0.1 kcal/mol
100 | GATGTCACGTGGTCGG | 0.17 kcal/mol
101 | AGCAACACGTGTGTGT | 0.02 kcal/mol
102 | GAGTTCACGTGGCGCT | 0.4 kcal/mol
103 | AAGGCCACGTGTAAGG | 0.05 kcal/mol
104 | ACGGGCACGTGGGGCG | -0.33 kcal/mol
105 | GTCTGCACGTGTTGGC | 0.07 kcal/mol
106 | AGTTCCACGTGGTTGA | 0.13 kcal/mol
107 | GGTGGCACGTGTTAAG | 0.04 kcal/mol
108 | GTTCTCACGTGGGGAT | 0.18 kcal/mol
109 | GGGATCACGTGTGTCT | 0.29 kcal/mol
110 | CTTCGCACGTGGGGGA | -0.21 kcal/mol
111 | CTGGTCACGTGCGGGG | 0.08 kcal/mol
112 | TCGTGCACGTGCATGG | -0.16 kcal/mol
113 | CGGTCCACGTGGGGGT | -0.24 kcal/mol
114 | TATTTCACGTGCGGCT | 0.34 kcal/mol
115 | AGCGGCACGTGAAATG | 0.1 kcal/mol

Reference: the BET-seq Pho4 binding data (Le et al. 2018)
